Source: the antibiotic and cytotoxicity screens of Wong et al. (2023)
This is one part of the list.

Columns and labels:
HSkMC = human skeletal muscle cells; assay: cytotoxicity call (relative viability < 0.9); conditions: 10 µM
HepG2 = assay: cytotoxicity call (relative viability < 0.9); conditions: 10 µM
S. aureus RN4220 = assay: growth inhibition call (relative growth <= 0.2); conditions: 50 µM

SMILES | cytotoxicity call (HSkMC) | cytotoxicity call (HepG2) | growth inhibition call (S. aureus RN4220)
Cc1ccc(S(=O)(=O)N2C[C@@H](O)COC[C@H]3O[C@H](CC(=O)NCc4ccc5c(c4)OCO5)CC[C@@H]32)cc1 | inactive | inactive | inactive
CCCN(C)C[C@H]1OCCCC[C@@H](C)Oc2ccc(NS(C)(=O)=O)cc2C(=O)N([C@H](C)CO)C[C@@H]1C | inactive | inactive | inactive
C[C@H](CO)N1C[C@H](C)[C@H](CN(C)S(=O)(=O)c2cn(C)cn2)Oc2ccc(NC(=O)Nc3ccc4c(c3)OCO4)cc2CC1=O | inactive | inactive | inactive
CN1CCN(C(=O)C[C@H]2CC[C@H]3[C@@H](COC[C@@H](O)CN3C(=O)Nc3cc(Cl)cc(Cl)c3)O2)CC1 | inactive | inactive | inactive
CO[C@@H]1CN(C)C(=O)c2cc(NS(=O)(=O)CC(F)(F)F)ccc2OC[C@@H](C)N(C(=O)NC(C)C)C[C@@H]1C | inactive | inactive | inactive
C[C@H]1CN([C@@H](C)CO)C(=O)Cc2cc(NC(=O)CCN3CCOCC3)ccc2O[C@@H]1CN(C)Cc1ccc(C(=O)O)cc1 | inactive | inactive | inactive
COc1ccncc1-c1ccccc1CN(C(=O)c1ccc(-c2ccc(C#N)cc2)o1)c1ccc(N2CCNCC2)cc1 | active | active | inactive
C[C@H]1CCCCO[C@H](CN(C)S(C)(=O)=O)[C@@H](C)CN([C@@H](C)CO)C(=O)c2cc(NS(=O)(=O)c3cn(C)cn3)ccc2O1 | inactive | inactive | inactive
COc1ccc(S(=O)(=O)Nc2cccc3c2O[C@H](CN(C)S(=O)(=O)c2cccs2)[C@@H](C)CN([C@@H](C)CO)C3=O)cc1 | inactive | inactive | inactive
S=c1[nH]c2ccccc2s1 | inactive | inactive | inactive
COc1ccc(S(=O)(=O)N(C)C[C@@H]2Oc3ccc(NC(=O)Nc4cccc5ccccc45)cc3C(=O)N([C@H](C)CO)C[C@@H]2C)cc1 | inactive | inactive | inactive
COc1ccc(NC(=O)Nc2cccc3c2O[C@@H](CN(C)Cc2ccc(C(F)(F)F)cc2)[C@H](C)CN([C@@H](C)CO)C3=O)cc1 | inactive | inactive | inactive
Cc1cn[nH]c1 | inactive | inactive | inactive
C[C@@H]1CN([C@@H](C)CO)C(=O)c2cccc(NC(=O)NC3CCCCC3)c2O[C@@H]1CN(C)S(C)(=O)=O | inactive | inactive | inactive
C[C@@H]1CN([C@@H](C)CO)C(=O)c2cc(NC(=O)CCN3CCOCC3)ccc2O[C@@H]1CN(C)S(=O)(=O)c1ccc(F)cc1 | inactive | inactive | inactive
Cc1ccc(S(=O)(=O)Nc2ccc3c(c2)C(=O)N(C)[C@H]2CC[C@H](CC(=O)NCCc4ccncc4)O[C@@H]2CO3)cc1 | inactive | inactive | inactive
N[C@]1(C(=O)O)C[C@H](C(=O)O)C1 | inactive | inactive | inactive
C[C@@H]1CN([C@H](C)CO)C(=O)Cc2cc(NS(=O)(=O)c3ccc(Cl)cc3)ccc2O[C@@H]1CN(C)Cc1ccc(C(=O)Nc2ccccc2N)cc1 | inactive | inactive | inactive
CS(=O)(=O)SCCN | inactive | inactive | inactive
Cc1noc(C)c1NC(=O)N(C)C[C@H]1Oc2ccc(NS(=O)(=O)c3c(C)noc3C)cc2CC(=O)N([C@H](C)CO)C[C@@H]1C | inactive | inactive | inactive
C[C@H]1CCCCO[C@@H](CN(C)C(=O)Nc2ccc(C(F)(F)F)cc2)[C@@H](C)CN([C@@H](C)CO)C(=O)c2cc(NC(=O)Nc3ccc(C(F)(F)F)cc3)ccc2O1 | inactive | inactive | inactive
C[C@@H]1O[C@@H](O[C@H]2[C@H](O)[C@@H](O)[C@H](OC[C@H]3O[C@@H](OC(=O)[C@]45CCC(C)(C)C[C@@H]4C4=CC[C@H]6[C@@]7(C)CC[C@H](O[C@H]8OC[C@H](O)[C@H](O)[C@H]8O[C@H]8O[C@@H](C)[C@H](O)[C@@H](O)[C@H]8O)[C@@](C)(CO)[C@@H]7CC[C@@]6(C)[C@]4(C)CC5)[C@H](O)[C@@H](O)[C@@H]3O)O[C@@H]2CO)[C@H](O)[C@H](O)[C@H]1O | inactive | inactive | inactive
COc1ccccc1-c1cnc2c(c1)C(=O)N([C@@H](C)CO)C[C@H](C)[C@@H](CN(C)C(=O)c1cccnc1)O2 | inactive | inactive | inactive
CC(C)NC(=O)Nc1cccc2c1O[C@H](CN(C)S(=O)(=O)c1ccc(F)cc1)[C@H](C)CN([C@H](C)CO)C2=O | inactive | inactive | inactive
CN(C)C(=O)C[C@H]1CC[C@H](NC(=O)C2CC2)[C@@H](CO)O1 | inactive | inactive | inactive
Cc1noc(C)c1NC(=O)Nc1ccc2c(c1)C(=O)N([C@H](C)CO)C[C@@H](C)[C@H](CN(C)S(=O)(=O)c1ccccc1)OCCCC[C@H](C)O2 | inactive | inactive | inactive

SMILES | cytotoxicity call (HSkMC) | cytotoxicity call (HepG2) | growth inhibition call (S. aureus RN4220)
C[C@H]1CN([C@@H](C)CO)C(=O)c2cccc(NC(=O)C3CC3)c2O[C@@H]1CN(C)Cc1ccc(Oc2ccccc2)cc1 | inactive | inactive | inactive
CC(C)(C[C@H]1CN(S(=O)(=O)c2cccc(C(F)(F)F)c2)c2cc(-c3cc(F)cc(OC(F)F)c3)ccc2O1)C(=O)O | inactive | inactive | inactive
C=CC[C@@H](CC(=O)N(CCO)Cc1ccccc1)C(=O)NC[C@H](OC(=O)[C@H](CC=C)NC(=O)OCC1c2ccccc2-c2ccccc21)c1ccccc1 | inactive | inactive | inactive
CC(C)[C@@H]1CC[C@@H](C)CC1=O | inactive | inactive | inactive
C[C@H](CO)N1C[C@H](C)[C@@H](CN(C)Cc2ccc(Oc3ccccc3)cc2)Oc2c(NC(=O)Nc3ccccc3)cccc2C1=O | active | inactive | inactive
COc1ccc(S(=O)(=O)N(C)C[C@H]2OCCCC[C@H](C)Oc3ccc(NC(=O)C4CCCCC4)cc3C(=O)N([C@H](C)CO)C[C@@H]2C)cc1 | inactive | active | inactive
C[C@@H]1CCCCO[C@@H](CN(C)C(=O)Nc2ccc(C(F)(F)F)cc2)[C@H](C)CN([C@H](C)CO)C(=O)c2cc(NS(C)(=O)=O)ccc2O1 | inactive | inactive | inactive
C[C@@H]1CCCCO[C@H](CN(C)Cc2ccncc2)[C@@H](C)CN([C@H](C)CO)C(=O)c2cc(NC(=O)C3CCCCC3)ccc2O1 | inactive | inactive | inactive
Cc1noc(C)c1S(=O)(=O)Nc1ccc2c(c1)CC(=O)N([C@@H](C)CO)C[C@H](C)[C@@H](CN(C)CC1CC1)O2 | inactive | inactive | inactive
COCC#Cc1ccc2c(c1)O[C@@H](CN(C)Cc1ccc3c(c1)OCO3)[C@H](C)CN([C@@H](C)CO)S2(=O)=O | inactive | inactive | inactive
COc1ccc(S(=O)(=O)N(C)C[C@H]2Oc3ccc(NC(=O)C4CC4)cc3C(=O)N([C@@H](C)CO)C[C@@H]2C)cc1 | inactive | active | inactive
Cc1noc(C)c1NC(=O)Nc1cccc2c1O[C@@H](CN(C)Cc1ccc(-c3ccccc3)cc1)[C@@H](C)CN([C@H](C)CO)C2=O | inactive | inactive | inactive
COC(=O)[C@@]12O[C@@H]1[C@H](O[C@@H]1O[C@H](CO)[C@@H](O)[C@H](O)[C@H]1O)C[C@H]1[C@]3(C)C[C@@H](c4ccoc4)OC(=O)[C@H]3CC[C@]12C | inactive | active | inactive
O=S(=O)(c1cccc(OC(F)F)c1)N1[C@@H]2CC[C@@H](C2)[C@H]1c1nc2cccc(OCc3ccccc3)c2[nH]1 | inactive | inactive | inactive
Cc1ccc(S(=O)(=O)N(C)C[C@@H]2Oc3c(NC(=O)c4cc(C)nn4C)cccc3C(=O)N([C@H](C)CO)C[C@@H]2C)cc1 | inactive | inactive | inactive
C[C@H](CO)N1C[C@H](C)[C@H](CN(C)C(=O)c2ccccc2F)Oc2cc(C#CCN(C)C)ccc2S1(=O)=O | inactive | inactive | inactive
Cc1ccc(S(=O)(=O)N(C)C[C@H]2Oc3ccc(NS(=O)(=O)c4ccccc4)cc3CC(=O)N([C@H](C)CO)C[C@@H]2C)cc1 | inactive | inactive | inactive
C[C@H](CO)N1C[C@H](C)[C@@H](CN(C)Cc2ccc(Oc3ccccc3)cc2)Oc2ccc(NC(=O)Cn3cnnn3)cc2CC1=O | inactive | inactive | inactive
C#CCN([C@H](/C=C/C1CC1)[C@@H](O)CCn1cc(CCC(=O)NO)nn1)[C@@H](Cc1ccccc1)C(=O)OC | inactive | inactive | inactive
Cc1coc(C)c1C(=O)O[C@@H]1O[C@@H](C)[C@H](O)[C@@H](O)[C@H]1O | active | active | inactive
C[C@@H]1CN([C@@H](C)CO)C(=O)Cc2cc(NC(=O)Cn3cnnn3)ccc2O[C@H]1CN(C)Cc1ccc(C(=O)Nc2ccccc2N)cc1 | inactive | inactive | inactive
C[C@@H]1CN([C@@H](C)CO)C(=O)c2cc(NS(=O)(=O)c3cccs3)ccc2O[C@@H]1CN(C)CC1CC1 | inactive | inactive | inactive
COc1ccc(S(=O)(=O)Nc2ccc3c(c2)C(=O)N([C@@H](C)CO)C[C@H](C)[C@H](CN(C)S(=O)(=O)c2ccc(OC)cc2)O3)cc1 | inactive | inactive | inactive
COc1ccc(NC(=O)N(C)C[C@@H]2OCCCC[C@H](C)Oc3ccc(NS(=O)(=O)c4ccc(F)cc4)cc3C(=O)N([C@@H](C)CO)C[C@@H]2C)cc1 | inactive | inactive | inactive
CN(C)CC#Cc1ccc([C@H]2[C@@H](CO)N3C(=O)CN(C(=O)CN(C)C)C[C@@H]23)cc1 | inactive | inactive | inactive
COc1ccc(NC(=O)Nc2ccc3c(c2)CC(=O)N([C@@H](C)CO)C[C@@H](C)[C@H](CN(C)Cc2ccc(C(F)(F)F)cc2)O3)cc1 | inactive | active | inactive
